Assay results from patent US20230250147A1, “GLP-1R AGONISTIC PEPTIDES WITH REDUCED ACTIVITY” (SANOFI, priority 2020, published 2023).

T1: Mouse GLP-1R (Mus musculus, UniProt O35659)
T1 construct: expressed in transfected cells; host or cells: HEK-293
T1 sequence (O35659 22-463): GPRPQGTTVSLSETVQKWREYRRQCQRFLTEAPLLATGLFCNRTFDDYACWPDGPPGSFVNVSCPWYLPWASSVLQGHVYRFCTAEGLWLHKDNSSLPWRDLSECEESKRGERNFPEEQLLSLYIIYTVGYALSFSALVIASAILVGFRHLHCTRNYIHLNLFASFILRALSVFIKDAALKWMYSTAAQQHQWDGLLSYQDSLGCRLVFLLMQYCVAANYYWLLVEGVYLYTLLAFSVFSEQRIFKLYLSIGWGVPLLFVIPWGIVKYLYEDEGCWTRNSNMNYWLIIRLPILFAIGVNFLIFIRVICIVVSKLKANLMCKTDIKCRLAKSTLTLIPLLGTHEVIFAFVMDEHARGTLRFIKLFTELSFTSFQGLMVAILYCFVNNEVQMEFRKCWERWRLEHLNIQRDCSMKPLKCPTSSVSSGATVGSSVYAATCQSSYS

B1: 164 (protein)
chain: HSEGTFTSDKSKQLAKRLVRLFIEWLIKGGHSSGKPPPKGGGGGGGSGGGGSGGGGSA[… human IgG4 Fc with changes …]GGGSGSAHPIPDSSPLLQFGGQVRQRYLYTDDACQTEAHLEIREDGTVGGAADQSPESLLQLKALKPGVIQILGVKTSRFLCQRPDGALYGSLHFDPEACSFRELLLEDGYNVYQSEAHGLPLHLPGCKSPHRDPAPRGPARFLPLPGLPPAPPEPPGILAPQPPDVGSSDPLSMVGSQGRSPSYAS
modifications: Fusion Protein
B2: 194 (protein)
chain: HGEGTFTSDLSKQLEKELVRLFYEWLINGGHKSGKPPPKGGGGGGGSGGGGSGGGGSA[… human IgG4 Fc with changes …]GGGSGSAHPIPDSSPLLQFGGQVRQRYLYTDDACQTEAHLEIREDGTVGGAADQSPESLLQLKALKPGVIQILGVKTSRFLCQRPDGALYGSLHFDPEACSFRELLLEDGYNVYQSEAHGLPLHLPGCKSPHRDPAPRGPARFLPLPGLPPAPPEPPGILAPQPPDVGSSDPLSMVGSQGRSPSYAS
modifications: Fusion Protein
B3: 188 (protein)
chain: HGEGTFTSDLSIQLAKRLAQLFIEWLIKGGHSSGKPPPKGGGGGGGSGGGGSGGGGSA[… human IgG4 Fc with changes …]GGGSGSAHPIPDSSPLLQFGGQVRQRYLYTDDACQTEAHLEIREDGTVGGAADQSPESLLQLKALKPGVIQILGVKTSRFLCQRPDGALYGSLHFDPEACSFRELLLEDGYNVYQSEAHGLPLHLPGCKSPHRDPAPRGPARFLPLPGLPPAPPEPPGILAPQPPDVGSSDPLSMVGSQGRSPSYAS
modifications: Fusion Protein
B4: 192 (protein)
chain: HGEGTFTSDLSKQLEERLARLFYEWLIAGGHSSQKPPPKGGGGGGGSGGGGSGGGGSA[… human IgG4 Fc with changes …]GGGSGSAHPIPDSSPLLQFGGQVRQRYLYTDDACQTEAHLEIREDGTVGGAADQSPESLLQLKALKPGVIQILGVKTSRFLCQRPDGALYGSLHFDPEACSFRELLLEDGYNVYQSEAHGLPLHLPGCKSPHRDPAPRGPARFLPLPGLPPAPPEPPGILAPQPPDVGSSDPLSMVGSQGRSPSYAS
modifications: Fusion Protein
B5: 190 (protein)
chain: HGEGTFTSDKSKQLEKELVRLFYEWLKAGGHSKQKPPPKGGGGGGGSGGGGSGGGGSA[… human IgG4 Fc with changes …]GGGSGSAHPIPDSSPLLQFGGQVRQRYLYTDDACQTEAHLEIREDGTVGGAADQSPESLLQLKALKPGVIQILGVKTSRFLCQRPDGALYGSLHFDPEACSFRELLLEDGYNVYQSEAHGLPLHLPGCKSPHRDPAPRGPARFLPLPGLPPAPPEPPGILAPQPPDVGSSDPLSMVGSQGRSPSYAS
modifications: Fusion Protein
B6: 187 (protein)
chain: HGEGTFTSDLSKQLAERLVRLFIEWLIKGGHSSGKPPPKGGGGGGGSGGGGSGGGGSA[… human IgG4 Fc with changes …]GGGSGSAHPIPDSSPLLQFGGQVRQRYLYTDDACQTEAHLEIREDGTVGGAADQSPESLLQLKALKPGVIQILGVKTSRFLCQRPDGALYGSLHFDPEACSFRELLLEDGYNVYQSEAHGLPLHLPGCKSPHRDPAPRGPARFLPLPGLPPAPPEPPGILAPQPPDVGSSDPLSMVGSQGRSPSYAS
modifications: Fusion Protein
B7: 220 (protein)
chain: GHGEGTFTSDKSKQLEEEAVRLFIEWLKAGGPAPAPAPAPAPAGGG[… human IgG1 Fc with changes …]GGGSGSAHPIPDSSPLLQFGGQVRQRYLYTDDACQTEAHLEIREDGTVGGAADQSPESLLQLKALKPGVIQILGVKTSRFLCQRPDGALYGSLHFDPEACSFRELLLEDGYNVYQSEAHGLPLHLPGCKSPHRDPAPRGPARFLPLPGLPPAPPEPPGILAPQPPDVGSSDPLSMVYPSQGRSPSYAS
modifications: Fusion Protein
B8: 227 (protein)
chain: GHGEGTFTSDKSKQLEEEAVRLFIEWLKAGGPKKIRYSAEAAAKEAAAKEAAAKGGG[… human IgG1 Fc with changes …]GGGSGSAHPIPDSSPLLQFGGQVRQRYLYTDDACQTEAHLEIREDGTVGGAADQSPESLLQLKALKPGVIQILGVKTSRFLCQRPDGALYGSLHFDPEACSFRELLLEDGYNVYQSEAHGLPLHLPGCKSPHRDPAPRGPARFLPLPGLPPAPPEPPGILAPQPPDVGSSDPLSMVYPSQGRSPSYAS
modifications: Fusion Protein
B9: 225 (protein)
chain: GHGEGTFTSDKSKQLEEEAVRLFIEWLKAGGPKKIRYSPAPAPAPAPAPAGGG[… human IgG1 Fc with changes …]GGGSGSAHPIPDSSPLLQFGGQVRQRYLYTDDACQTEAHLEIREDGTVGGAADQSPESLLQLKALKPGVIQILGVKTSRFLCQRPDGALYGSLHFDPEACSFRELLLEDGYNVYQSEAHGLPLHLPGCKSPHRDPAPRGPARFLPLPGLPPAPPEPPGILAPQPPDVGSSDPLSMVYPSQGRSPSYAS
modifications: Fusion Protein
B10: 221 (protein)
chain: GHGEGTFTSDKSKQLEEEAVRLFIEWLKAGPAPAPAEAAAKEAAAKPAPAPA[… human IgG1 Fc with changes …]GGGSGSAHPIPDSSPLLQFGGQVRQRYLYTDDACQTEAHLEIREDGTVGGAADQSPESLLQLKALKPGVIQILGVKTSRFLCQRPDGALYGSLHFDPEACSFRELLLEDGYNVYQSEAHGLPLHLPGCKSPHRDPAPRGPARFLPLPGLPPAPPEPPGILAPQPPDVGSSDPLSMVYPSQGRSPSYAS
modifications: Fusion Protein
B11: 228 (protein)
chain: GHGEGTFTSDKSKQLEEEAVRLFIEWLKAGGPKKIRYSAEAAAKEAAAKEAAAKEAAKALEAEAAKEAAKEAAKEAAKAGGG[… human IgG1 Fc with changes …]GGGSGSAHPIPDSSPLLQFGGQVRQRYLYTDDACQTEAHLEIREDGTVGGAADQSPESLLQLKALKPGVIQILGVKTSRFLCQRPDGALYGSLHFDPEACSFRELLLEDGYNVYQSEAHGLPLHLPGCKSPHRDPAPRGPARFLPLPGLPPAPPEPPGILAPQPPDVGSSDPLSMVYPSQGRSPSYAS
modifications: Fusion Protein
B12: 224 (protein)
chain: GHGEGTFTSDKSKQLEEEAVRLFIEWLKAGGPKKIRYS[… human IgG1 Fc with changes …]GGGSGSAHPIPDSSPLLQFGGQVRQRYLYTDDACQTEAHLEIREDGTVGGAADQSPESLLQLKALKPGVIQILGVKTSRFLCQRPDGALYGSLHFDPEACSFRELLLEDGYNVYQSEAHGLPLHLPGCKSPHRDPAPRGPARFLPLPGLPPAPPEPPGILAPQPPDVGSSDPLSMVYPSQGRSPSYAS
modifications: Fusion Protein
B13: 219 (protein)
chain: GHGEGTFTSDKSKQLEEEAVRLFIEWLKAGGGGGGGGGSGGGGSGGGGSA[… human IgG1 Fc with changes …]GGGSGSAHPIPDSSPLLQFGGQVRQRYLYTDDACQTEAHLEIREDGTVGGAADQSPESLLQLKALKPGVIQILGVKTSRFLCQRPDGALYGSLHFDPEACSFRELLLEDGYNVYQSEAHGLPLHLPGCKSPHRDPAPRGPARFLPLPGLPPAPPEPPGILAPQPPDVGSSDPLSMVYPSQGRSPSYAS
modifications: Fusion Protein
B14: 226 (protein)
chain: GHGEGTFTSDKSKQLEEEAVRLFIEWLKAGGPKKIRYSPAPAPAEAAAKEAAAKPAPAPA[… human IgG1 Fc with changes …]GGGSGSAHPIPDSSPLLQFGGQVRQRYLYTDDACQTEAHLEIREDGTVGGAADQSPESLLQLKALKPGVIQILGVKTSRFLCQRPDGALYGSLHFDPEACSFRELLLEDGYNVYQSEAHGLPLHLPGCKSPHRDPAPRGPARFLPLPGLPPAPPEPPGILAPQPPDVGSSDPLSMVYPSQGRSPSYAS
modifications: Fusion Protein
B15: 217 (protein)
chain: YSEGTFTSDLSILCEKRAVHEFIEWLIAGGPSSGKPPPKPGCGSGGGGGSGGGGSGGGGGA[… human IgG1 Fc with changes …]GGGSGSAHPIPDSSPLLQFGGQVRQRYLYTDDACQTEAHLEIREDGTVGGAADQSPESLLQLKALKPGVIQILGVKTSRFLCQRPDGALYGSLHFDPEACSFRELLLEDGYNVYQSEAHGLPLHLPGCKSPHRDPAPRGPARFLPLPGLPPAPPEPPGILAPQPPDVGSSDPLSMVYPSQGRSPSYAS
modifications: Fusion Protein
B16: 222 (protein)
chain: GHGEGTFTSDKSKQLEEEAVRLFIEWLKAGGAEAAAKEAAAKEAAAKGGG[… human IgG1 Fc with changes …]GGGSGSAHPIPDSSPLLQFGGQVRQRYLYTDDACQTEAHLEIREDGTVGGAADQSPESLLQLKALKPGVIQILGVKTSRFLCQRPDGALYGSLHFDPEACSFRELLLEDGYNVYQSEAHGLPLHLPGCKSPHRDPAPRGPARFLPLPGLPPAPPEPPGILAPQPPDVGSSDPLSMVYPSQGRSPSYAS
modifications: Fusion Protein
B17: 223 (protein)
chain: GHGEGTFTSDKSKQLEEEAVRLFIEWLKAGGAEAAAKEAAAKEAAAKEAAKALEAEAAKEAAKEAAKEAAKAGGG[… human IgG1 Fc with changes …]GGGSGSAHPIPDSSPLLQFGGQVRQRYLYTDDACQTEAHLEIREDGTVGGAADQSPESLLQLKALKPGVIQILGVKTSRFLCQRPDGALYGSLHFDPEACSFRELLLEDGYNVYQSEAHGLPLHLPGCKSPHRDPAPRGPARFLPLPGLPPAPPEPPGILAPQPPDVGSSDPLSMVYPSQGRSPSYAS
modifications: Fusion Protein

These molecules were tested against T2, Monkey GLP-1R (Macaca fascicularis, UniProt F8V479) (assay: HTRF cAMP assay in HEK-293 cells, monkey GLP-1R).
T2 construct: expressed in transfected cells; host or cells: HEK-293
Format: cell-based
Method: (§1) Recombinant HEK-293 cells were grown in T175 culture flasks placed at 37° C. to near confluence in medium (DMEM with 10% FBS) and collected in 2 mL vials in cell culture medium containing 10% DMSO in concentrations of 1-5×10^7 cells/mL. Each vial contained 1.8 mL cell suspension. The vials were slowly frozen to −80° C. in an isopropanol chamber, and then transferred to liquid nitrogen for long term storage.
(§2) Prior to their use, frozen cells were thawed quickly at 37° C., washed with 20 mL cell buffer (1×HBSS; 20 mM HEPES, 0.1% BSA) and centrifuged for 5 minutes at 900 rpm. Cells were resuspended in assay buffer (cell buffer plus 2 mM IBMX) and adjusted to a cell density of 1×10^6 cells/mL. For measurement, 5 μL cell suspension (final 5×10^3 cells/well) and 5 μL of test compound were added to a well of a 384-well plate, followed by incubation for 30 minutes at room temperature. […] The cAMP content of cells was determined using a kit from Cisbio Corp. (cat. no. 62AM4PEC) based on Homogenous Time Resolved Fluorescence (HTRF).

T2 sequence (F8V479 24-463): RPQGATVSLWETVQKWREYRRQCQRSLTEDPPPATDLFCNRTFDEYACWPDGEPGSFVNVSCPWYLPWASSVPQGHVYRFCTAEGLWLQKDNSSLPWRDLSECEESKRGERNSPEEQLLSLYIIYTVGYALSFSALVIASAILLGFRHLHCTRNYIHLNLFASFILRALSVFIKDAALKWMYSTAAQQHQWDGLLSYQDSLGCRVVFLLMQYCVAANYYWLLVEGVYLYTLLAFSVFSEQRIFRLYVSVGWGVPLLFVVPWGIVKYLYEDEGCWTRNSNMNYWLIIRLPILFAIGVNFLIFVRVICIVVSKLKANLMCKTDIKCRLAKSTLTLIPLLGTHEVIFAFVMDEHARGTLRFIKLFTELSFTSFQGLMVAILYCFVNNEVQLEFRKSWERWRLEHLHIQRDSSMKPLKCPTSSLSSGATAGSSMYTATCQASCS

EC50	Molecule
0.141 nM	B1
0.14 nM	B2
0.0637 nM	B3
0.149 nM	B4
0.239 nM	B5
0.0632 nM	B6

What follows are molecules tested against T3, Human GLP-1R (Homo sapiens, UniProt P43220) (assay: HTRF cAMP assay in HEK-293 cells, human GLP-1R).
T3 construct: expressed in transfected cells; host or cells: HEK-293
Format: cell-based

T3 sequence (P43220 24-463): as the sequence (F8V479 24-463) above, with N112S, S120F, G202S, V205L, F237L, R241W, V249I counted along it

EC50	Molecule
0.0955 nM	B7
0.0614 nM	B8
0.128 nM	B9
0.202 nM	B10
0.0492 nM	B11
0.227 nM	B12
0.222 nM	B13
0.0641 nM	B14
0.103 nM	B1
0.0597 nM	B3
0.102 nM	B4
0.152 nM	B5
0.0674 nM	B6
0.00762 nM	B15
0.327 nM	B16
0.0808 nM	B17

These molecules were tested against T1, Mouse GLP-1R (assay: HTRF cAMP assay in HEK-293 cells, mouse GLP-1R).
Format: cell-based
Method: as §1, §2

EC50	Molecule
0.11 nM	B7
0.0408 nM	B8
0.0616 nM	B9
0.162 nM	B10
0.0301 nM	B11
0.251 nM	B12
0.422 nM	B13
0.0435 nM	B14
0.088 nM	B1
0.129 nM	B2
0.071 nM	B3
0.098 nM	B4
0.479 nM	B5
0.0675 nM	B6
0.00539 nM	B15
0.201 nM	B16
0.0795 nM	B17
